The source gives no read counts; variants with many changes may rest on few reads.

To fix the notation:
B1: LINE1-mini (parent)
chain: GGCAGAGCUCAACACAGCGUGGCAAAGUGGCUGUGGCUAGACUGCC

Variants of B1 are the subject of this series. The series is described as follows: self-cleavage, relative activity (ratio to wild type); higher = more cleavage; in vitro, sequencing; the parent is a self-cleaving ribozyme.
Regarding A4U G5A U20A, the self-cleavage is 0.03.
Regarding A11C G30U A39G G44A, the self-cleavage was 0.
On to G1U A25U C45A, for which the self-cleavage was 0.47.
In the case of C3A G5U A25U C46G, the self-cleavage came to 0.1.
For the variant G1A G21U A24C G44C, the self-cleavage turned out to be 0.18.
On to C15U G36C C42U C46G, for which the self-cleavage is 0.02.
As for C3U G5A C42A, the self-cleavage is 0.08.
Regarding C8A G21U G40U C42A, the self-cleavage was determined as 0.59.
As for A4U G21A A25G G35U, the self-cleavage worked out at 0.18.
In the case of A11G G33U U38C, the self-cleavage is 0.01.
In the case of G7C C15U U20A, the self-cleavage came to 0.03.
With G7C G30U G33A C37U, the self-cleavage was 0.03.
As to C3A A11C G21U C42G, the self-cleavage worked out at 0.02.
As for G7A C15A G19C C37U U38G G44U, the figure is 0.01; as for G2U C3G G7C U38G, 0.03.
For C15U G29U G30U the value was 0.03.
For C8G C10U C13U A16U G22A, the self-cleavage came out at 0.03.
As for C15A A16C G21U, the self-cleavage was 0.03.
G19C A25G G29C: the self-cleavage was 0.36.
Turning to C15G A24C U34G C37U, the self-cleavage was 0.01.
Consider G1U G7A U38A U43A, for which the self-cleavage was found to be 0.01.
On to C8U A12G A14G C45A, for which the self-cleavage is 0.01.
With G7U A11U G29A, the self-cleavage was determined as 0.02.
For the variant A12C C23U U34G A39U C45A, the self-cleavage was determined as 0.
For G7U G35C U38A U43C the value was 0.09.
Regarding G5C U9A C10U, the self-cleavage turned out to be 0.03.
As for G7U G27U U38A, the self-cleavage stood at 0.11.
As to G36A U43A C45A, the self-cleavage stood at 0.08.
For C3A G7C C18U C46A the value was 0.04; for G1A A11C U38A A39C, 0; for A12G A25U U28A, 0.01.
Consider C8G A12G C31A, for which the self-cleavage was found to be 0.21.
Turning to G1C A4U U20A A41C, the self-cleavage stood at 0.02.
As for G2U G22A A26U A39U C46G, the self-cleavage was found to be 0.
For G2A C3U G7C C23U A25U, the self-cleavage came to 0.22.
For C8A G17U C45G the value was 0.08.
In the case of C15A C23G U32A A39G C46A, the self-cleavage was 0.01.
For the variant U9A A16G G22A G36C, the self-cleavage amounted to 0.01.
For the variant C3G G5U G40U C45A, the self-cleavage was found to be 0.04.
U20A C23G G44C: the self-cleavage came out at 0.01.
On to G1A G21U C37G G40A, for which the self-cleavage amounted to 0.03.
For C23G U28A G44A the value was 0.17.
As for C3A G21A G22A A26C C46A, the figure is 0.57; as for A6U G7A C37A, 0.09.
G1A C18A G35A A41U: the self-cleavage amounted to 0.02.
Take G1A C18U A26U A39C: the self-cleavage came to 0.06.
For the variant G35A G36C A39G, the self-cleavage came to 0.07.
For C8G G21C U32C the value was 0.04.
As for U34A G35U G36U U38G, the self-cleavage is 0.02.
Turning to C8U U28A C31G U43G, the self-cleavage amounted to 0.35.
Consider G7A C13A G27U, for which the self-cleavage turned out to be 0.14.
In the case of A4U G19C U20G, the self-cleavage amounted to 0.06.
As for C13G A14G U20C G22A C31A, the self-cleavage came to 0.01.
Turning to C23U G30U U32G U43A, the self-cleavage amounted to 0.03.
With A4C G7A C15U, the self-cleavage is 0.24.
For the variant G33U U38G C42A U43C G44A, the self-cleavage is 0.02.
For the variant U28A U32C G40U, the self-cleavage stood at 0.15.
For the variant G17A G19A G29C C46U, the self-cleavage was 0.06.
As to C23A G29U G33A U34A C46G, the self-cleavage is 0.07.
As for G1U A14G G44U C45U C46U, the figure is 0.05; as for A4G A12G A24C C37U, 0.1; as for A11U A16C C18G, 0.02.
As for G1U A6U C8G A16C C23U U28G U34G, the figure is 0.04; as for G17C A25C G27A G33C C37A, 0.05.
For G33A C37U A41U C46G, the self-cleavage amounted to 0.07.
Take G21U C37U G40U: the self-cleavage was 0.3.
In the case of C10U A14U A24U G29C, the self-cleavage came to 0.07.
Turning to C3G A24C G40A, the self-cleavage is 0.06.
For G22U C23G G27A U32G the value was 0.62; for A14G A16C U20C G40C, 0.01; for G17U G35A G40U, 0.02.
C15U G21U U34A G40A: the self-cleavage came to 0.04.
As to C3A A4G C13G A14G G35U U38G, the self-cleavage stood at 0.03.
For A12U A16U G21A A41C G44U, the self-cleavage came out at 0.01.
As for U28G G29C G35C G40A, the self-cleavage worked out at 0.12.
Turning to A11U G21U C31A, the self-cleavage was 0.02.
For G2A A6C G7U C10A G17U G27A G30U G36A A39U, the self-cleavage was found to be 0.04.
Take G1A A11G C23U G40C: the self-cleavage was determined as 0.02.
Consider A6U G19A U28A, for which the self-cleavage was found to be 0.63.
A16U G17A A24G A26C: the self-cleavage worked out at 0.01.
Turning to G30U G35A A39U, the self-cleavage was 0.04.
As to G17U G21U G40U C42A C45A, the self-cleavage was 0.06.
Take A24C G29C G44A C46A: the self-cleavage was found to be 0.04.
As to G5A U32A C46G, the self-cleavage worked out at 0.02.
With A6C U20G C37U A41G, the self-cleavage was determined as 0.04.
Take U20C A26C G29C: the self-cleavage worked out at 0.28.
In the case of G17A G27U A41U, the self-cleavage was 0.01.
Consider A4U G17A C31A A39C, for which the self-cleavage was 0.
For C3A C13U A16G C18U G22A A25G C37A U38G, the self-cleavage amounted to 0.11.
Turning to A6C G33A U43A, the self-cleavage was 0.03.
As to C13A C45A C46G, the self-cleavage was 0.07.
For G2C C10A G21U G44C the value was 0; for A24G C37A C45A, 0.06.
For C8A C15U G40A the value was 0.09; for C3A A16U A25U, 0.09; for C8G G17A C18A G21U G22A, 0.
On to G1U A6C G17A G22U G36U C46A, for which the self-cleavage is 0.02.
G30U C31A G36C C37U: the self-cleavage was found to be 0.01.
Take A12C U34C G35C C37A: the self-cleavage stood at 0.
As for A11U C15G U43A C45U, the self-cleavage was 0.09.
As for G22C U28G C37A, the figure is 0.01; as for G5U U9A G35A, 0.06; as for G2C A14G C37U, 0.06.
Consider G2U G5C A6G A26U U38G C42A U43G, for which the self-cleavage came out at 0.
As for U20A G27C U28C U32C C45A, the figure is 0.01; as for C10G A25C G27U, 0.04; as for A16U U28A G35A G36A U38A G40C, 0.04.
As for G2U C23U G44C, the figure is 0.04.
For G2C A41G G44U the value was 0.05; for G7U U34C A41C, 0.19.
For the variant G5A G7C C13G C18A, the self-cleavage was found to be 0.69.
Turning to U9G C10U G27A G29C U34C, the self-cleavage is 0.02.
As for C10G A11U U34A G36U, the self-cleavage was 0.02.
Take G1U C10U U20A G44C: the self-cleavage is 0.07.
In the case of C13A A16G C45U, the self-cleavage was determined as 0.07.
G21U A24U U43A: the self-cleavage was 0.03.
For the variant A16G A25G C42U, the self-cleavage stood at 0.08.
Consider U9A C18U G21A, for which the self-cleavage amounted to 0.16.
Turning to U9A A14G U34A, the self-cleavage was found to be 0.05.
With C3U A12C A16C G35C, the self-cleavage was 0.02.
Take G2C C15U A24C G27C: the self-cleavage is 0.05.
Consider A12C C23U U28A A39G C45A, for which the self-cleavage came to 0.01.
Take G7A G29A A39G: the self-cleavage amounted to 0.07.
For C13G G19C U32C the value was 0.04; for C10U G33C U38A, 0.04; for C3U U9C G27C, 0.04.
In the case of C3G G5A A12C C23U A26G G29C, the self-cleavage was found to be 0.01.
As for G30A C31U G44C C45G, the self-cleavage was found to be 0.13.
As for C3G A25G A41U, the figure is 0.07.
As to A11C G19U C46G, the self-cleavage was found to be 0.14.
As for A4G U32C G36A C42G, the self-cleavage came out at 0.03.
On to C23U A26C U32C U38A C46A, for which the self-cleavage was 0.
Take A4U C13G C18G: the self-cleavage was 0.05.
Consider A16G C31A G33C C42A, for which the self-cleavage came to 0.01.
Turning to G2A G7A C8A C18A, the self-cleavage was 0.54.
As for A11U G17U G40C, the figure is 0.01; as for G1A G17A C42A, 0.06.
As for C13A G29C U43A, the self-cleavage was found to be 0.1.
As for G22U G35U G40A, the self-cleavage worked out at 0.17.
Regarding C3G G33U C45U, the self-cleavage came out at 0.22.
With A12G G17U C37A C45G, the self-cleavage was found to be 0.
With C13G G21U C23A G30U C31A U38A C42A G44U, the self-cleavage is 0.07.
As to C3A A6U U28C, the self-cleavage turned out to be 0.15.
As for C3A C18U G30C G33U, the figure is 0.11; as for U32C G40A C46A, 0.07.
Regarding G5U C10U G35C, the self-cleavage amounted to 0.09.
Turning to C3U G17A C18A, the self-cleavage came out at 0.07.
For A16G G29C C42U G44U, the self-cleavage amounted to 0.03.
For C3G C8U U32C the value was 0.14.
Consider G19A C23U C31U, for which the self-cleavage was found to be 0.59.
For G7C C13U G19U A41G the value was 0.01; for G5U G7A A26C G40A C46U, 0.05.
Regarding C13U G19U G36C, the self-cleavage was found to be 0.04.
On to A4C G22A G29C G36U A41U, for which the self-cleavage worked out at 0.07.
For C10G A24G C46G the value was 0.1.
Turning to A12C C13A U32C G36U, the self-cleavage came to 0.04.
Take G2U C8U C37U G40A: the self-cleavage came out at 0.01.
With G1A G5U A39U, the self-cleavage turned out to be 0.18.
As for A12G A26C C37U, the self-cleavage came out at 0.03.
A12C A14C C18G G33U U38A: the self-cleavage is 0.01.
For G1U C18G U28A, the self-cleavage is 0.27.
Consider A11G A16C G35U G44C, for which the self-cleavage is 0.01.
Consider A6G C10A A14C U28G, for which the self-cleavage was 0.
For A16U G19U A26U, the self-cleavage was found to be 0.16.
For G17A U20G G30C the value was 0.03; for G21U A24U C37A, 0.03; for C3U G17U C46A, 0.09.

Source of the values: the RNAGym collection of RNA variant scans (doi:10.7554/elife.90254).
